According to publication PMC12136788:
The list shows a part of the results.

T1: UNK ZnF1-3 (human, UniProt Q9C0B0 31-174)
T1 sequence: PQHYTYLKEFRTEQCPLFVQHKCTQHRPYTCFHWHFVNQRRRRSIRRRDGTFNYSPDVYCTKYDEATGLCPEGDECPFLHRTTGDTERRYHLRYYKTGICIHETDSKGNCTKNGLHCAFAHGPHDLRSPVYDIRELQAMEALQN

B1: chr4:40210074:40210075:-_ENSMUSG00000036822_ENSMUST00000042575|mus_hu|motif|central (ssRNA)
RNA: GGGAGUUCUACAGUCCGACGAUCUAUAGGACACUUAGAAUCAGGAGAUGCAUCAGCUGGUACUGUCUGUUGCAAUUUGCGGGUGCCAGCUUUAGGUGAAAAGUUGUCCAUUUUAAAUUCCUUAGCAGCUGAUGCCAUUAUCAUCAACAGAGGAUUGAGCAUCA
B2: chr3:41277855:41277856:+_ENSG00000168036_ENST00000349496|hu_mus|motif|central (ssRNA)
RNA: GGGAGUUCUACAGUCCGACGAUCUUCAAUGGCCUCUGCAGCCUCCUUGUCCUGAGCAAGUUCACAGAGGACCCCUGCAGCGGCUCUUUGGAUAUUUUCAAUGGGAGAAUAAAGCAACUGCACAAACAAUGGAAUGGUAUUGAGCAACAGAGGAUUGAGCAUCA
B3: chr2:50987981:50987982:-_ENSMUSG00000017144_ENSMUST00000017288|mus_mus|FALSE|FALSE (ssRNA)
RNA: GGGAGUUCUACAGUCCGACGAUCGGUGGCGACGUGAAAAAUGUCUCUGACGCUGUUUUCUGACUGUAAAGCUGAGCAUUCUAUGUAAGUGGCUGCUCCGAUCUGCUUGGCCAUAUUUGCCCCCUGGUCAUAUGACACAGGAGUCAACAGAGGAUUGAGCAUCA
B4: chr5:145543945:145543946:-_ENSG00000133706_ENST00000545646|hu_hu|hu_hu_hu_mus_True|18_48 (ssRNA)
RNA: GGGAGUUCUACAGUCCGACGAUCCUGAACGGCCAGUGGUGGGAAAUAAUCAAGCCAGUGCUCUGCUUCAGAAAACUUCACUAUGUCUUCAUCAGACAGCCCAAGGGAUUUCAUAAUGCCCCACUGGUACUUAGAAGAUCCUGCCAACAGAGGAUUGAGCAUCA
B5: chr8:97153689:97153690:+_ENSMUSG00000050079_ENSMUST00000060389|mus_mus|FALSE|FALSE (ssRNA)
RNA: GGGAGUUCUACAGUCCGACGAUCGUCUAGUAACAAGGUUAUAACAGCUGGUCCCAAUGGAUCUUCCAAUGGAAUAACUCUAAUUAAAGACUGGACAACAUCCAACCAUCCUUCAUCUGUUUCUGCCAUUUCAUGUAAUGUAAUCAACAGAGGAUUGAGCAUCA
B6: chr19:54062153:54062154:+_ENSMUSG00000024976_ENSMUST00000025932|mus_hu|motif|central (ssRNA)
RNA: GGGAGUUCUACAGUCCGACGAUCUUGGCUGAUGGUACUUUGGGAUCUUUUUCUUUAGAGUCUUUUUCUUUUCCUAAACGGCGGCUCAUGGUGACUCAAGCCUGGACAAAAACUACAUGAACUCCUUUUAUUUUCCAGUAAUUGCAACAGAGGAUUGAGCAUCA
B7: chr3:33650081:33650082:-_ENSG00000163539_ENST00000461133|hu_mus|motif|central (ssRNA)
RNA: GGGAGUUCUACAGUCCGACGAUCCAAAACAGCUGCAUGUCUUUCCAGUGAAUGAGUCUGCCAUUCUUGCAGCAGCAAAUCGGAAAAUUCAAAUGAACGUCUCCUUACAGGAACUGACUUUGAUGUGCAGUUGCUUGUUAUUAACAACAGAGGAUUGAGCAUCA
B8: 167754689_167758600_1407_CDS_ENSG00000173905_ENST00000470487|human|control|control (ssRNA)
RNA: GGGAGUUCUACAGUCCGACGAUCGGUCACAUUUUGCUGUUCUGCUGGAUCAGGUUUUCGAAGGCUUGGAAUCCUAUUCAGAGUAUCUUUCAGUUGUUUAUAUUCUGCAACUUGAGUCUGUGCAGCAGCUAGUGCACUCUUGUGCAACAGAGGAUUGAGCAUCA
B9: chrX:140292434:140292435:-_ENSMUSG00000031285_ENSMUST00000033642|mus_hu|FALSE|FALSE (ssRNA)
RNA: GGGAGUUCUACAGUCCGACGAUCACCUAAAGAUACAUGAGCUAUAAGGAAACUGCUUGUAAAGAUCUGCUGAGGGGGAUUACGAAUGAAAAUGGAGAAGAAGAAAGGGCCAGGAUCAGGUUGAUUCCCACCAACAUACUUCUGCAACAGAGGAUUGAGCAUCA
B10: chr7:44244176:44244177:+_ENSG00000106636_ENST00000223369|hu_mus|hu_hu_hu_mus_False|38_108 (ssRNA)
RNA: GGGAGUUCUACAGUCCGACGAUCACUAUCAUUCCGGACGUAGACAUGGCAAAGAUACUCUUGUUCUUUGACAGAAGCUCUGCUGCCUUUCCCCGAGCGCUCCACAAUCAGUUGACUUGUAAAGGUCAUGAAUUCCUGCACACUCAACAGAGGAUUGAGCAUCA
B11: chr1:109605286:109605287:-_ENSG00000197780_ENST00000461096|hu_mus|hu_hu_hu_mus_True|8_28 (ssRNA)
RNA: GGGAGUUCUACAGUCCGACGAUCAAGUUUCAGAGUAACAUUCAGUAACCUCUUUAAAUGCAAUUAUCCUUAUUAUAAGCUAAGCAGAAUAAUAAUUUAAUACCGUAAGUAAAUACAACACAAAGCCGUGUAUUCAGAAAUGGUCAACAGAGGAUUGAGCAUCA
B12: chr9:95013113:95013114:-_ENSG00000196305_ENST00000443024|hu_hu|hu_hu_hu_mus_False|48_68 (ssRNA)
RNA: GGGAGUUCUACAGUCCGACGAUCCUCAGUCAGAAAGGGCGUGUAAGGGGCCAUCAGUCUGCACAGAGAAAGCAGAACACUGAACAGGGUUUCUAGGGCCAUGACACAGUCUUCCACCCCACUCUCACCCUUUAACCUCCUCCUCAACAGAGGAUUGAGCAUCA
B13: chr4:115894766:115894767:+_ENSMUSG00000028698_ENSMUST00000030464|mus_hu|mus_mus_mus_hu_True|48_58 (ssRNA)
RNA: GGGAGUUCUACAGUCCGACGAUCUUCCACACGGAAAUGUACUUCGGGUUUUCCAACGGCCAGUACCAGUCCGGCCAACUACUAGGAUGAGGACAAGCCCCCUCUCUCCUACAGAACACAACAAAAUGCCCCCGAACUUUCAAGCAACAGAGGAUUGAGCAUCA
B14: chr14:102359341:102359342:+_ENSG00000078304_ENST00000445439|hu_hu|FALSE|FALSE (ssRNA)
RNA: GGGAGUUCUACAGUCCGACGAUCUUUUAGUGGUAAGGCAAAUCCAUUAAUUAUACUUCCCAAUAUUUCCAGUAACUCUGCUAUGCCAUUAUGAUGCUCUGUUUCAUAAAUAAACCUAUAAAAUAUAUUAUUUAUCUGUUUUCUCAACAGAGGAUUGAGCAUCA
B15: chr16:94690093:94690094:+_ENSMUSG00000040785_ENSMUST00000117648|mus_hu|mus_mus_mus_hu_True|1_98 (ssRNA)
RNA: GGGAGUUCUACAGUCCGACGAUCGGGCUGGGAUGACAGCAGACAGCCCUCGAUUCCAGGGGGAAAAAGUCUUAGUCGAUACUAAUUAAAAAGUGUUAAUGAUUUUUGAAAAUCAGAUUACAUCUAUAAAAGAUGAAAGCACUUCAACAGAGGAUUGAGCAUCA
B16: chr19:16212804:16212805:+_ENSG00000167460_ENST00000300933|hu_mus|hu_hu_hu_mus_False|28_38 (ssRNA)
RNA: GGGAGUUCUACAGUCCGACGAUCAACAAUUCUGGAGUGAAGGAAAGAUGUAACAUGGAACAGCAUUAAAGCUCAGUCAGAAGGCACAUGGGCAACAAUGACUAUUUCCCAAGCAUUGCUUGGAAUGCUUAAAGACAAUCUGUUCAACAGAGGAUUGAGCAUCA
B17: chr17:65740002:65740003:+_ENSG00000130935_ENST00000581375|hu_hu|hu_hu_hu_mus_False|88_98 (ssRNA)
RNA: GGGAGUUCUACAGUCCGACGAUCAACAAAUCUUUCUCUGGAUGAAGCAAGAGUUCAUUCAUAUUAAAAAAAAUAUAUAUCCAUCAAGUUAGGUGUGGUGGCCACACCUUUACUCCCAGCACUUUGGGAGGUGGAUCUCUGAGUCAACAGAGGAUUGAGCAUCA
B18: 127979771_127981217_349_CDS_ENSG00000106344_ENST00000459726|human|control|control (ssRNA)
RNA: GGGAGUUCUACAGUCCGACGAUCCUCCUUGAGGGCCCUCUGAACAUCUUCCAGCAUUGAAAAAGUGACAUAGCCAAAGCCUCGACAUGCCUUACUCCCUGAAAAGGACACAUAGUUCAUAUGCUCUGCUUCUCUUUCCACUGCCAACAGAGGAUUGAGCAUCA
B19: chr5:128440902:128440903:+_ENSG00000066583_ENST00000173527|hu_mus|hu_hu_hu_mus_True|1_68 (ssRNA)
RNA: GGGAGUUCUACAGUCCGACGAUCUUGAACGGUGCUGCCAAGUCCUUUGGGGUAUUGUUCCGUUAUGAUAACAGGAAUCCCUAAGAUCCGAGCUCCUUGCAACAGUCUCUGUCCCACACUAAUGAUGUCCCCAAAGUACUUGAUCAACAGAGGAUUGAGCAUCA
B20: 81058291_81058880_2252_CDS_ENSG00000108175_ENST00000334512|human|control|control (ssRNA)
RNA: GGGAGUUCUACAGUCCGACGAUCCUCCAGGCGGAAGGGCUCCAGCACCACGCCAUCCCGCACAGGGAAUGUGAGCCGCAGCUCGUCAUUGUGGUUGGCUGGGGGUGGUGGCAGAGCGCUCAUAUUUGGCUUGAUGUCAGGCGGCAACAGAGGAUUGAGCAUCA
B21: chr12:42180722:42180723:-_ENSMUSG00000036295_ENSMUST00000043884|mus_hu|mus_mus_mus_hu_True|18_68 (ssRNA)
RNA: GGGAGUUCUACAGUCCGACGAUCCUGUAGGAGAAGAAUCUGUGUGUUAGCUGGCAAUCUGGCUGGGAAGUUUAAAAGACCUAAAUCAUUACAAUCCACUGUAGAUGCUUCCAUAUAGAUGGAUCUCGGUGUAAACCAAGGCCUCAACAGAGGAUUGAGCAUCA
B22: chr7:150253219:150253220:+_ENSMUSG00000037706_ENSMUST00000037941|mus_mus|motif|central (ssRNA)
RNA: GGGAGUUCUACAGUCCGACGAUCCCGGAUGCCACAGCACAGCACCAUGCUCAGAAUCAUCUCAAAGAUCAUAAUGACAGCGGCCACAAUGGCUGCAAUUCCAAUGAGGUACAGCUUCCCAGAGAAGAGCUCAUCGAUUUUCUGCAACAGAGGAUUGAGCAUCA

Target: T1, UNK ZnF1-3
Test: nsRBNS (natural sequence RNA bind-n-seq); RBNS binding buffer (assumed for nsRBNS): 25 mM Tris pH 7.5, 150 mM KCl, 3 mM MgCl2, 0.01% Triton X-100, 500 ug/ml BSA, 20 U/ml SUPERase-In, 4 C; UNK is unkempt and MSI1 is Musashi-1; names of the RNAs are library labels; protein concentration not given here; high values mean tight binding

Row | Binder | binding signal
1 | B1 | 0.565 enrichment R
2 | B2 | 1.35 enrichment R
3 | B3 | 1.03 enrichment R
4 | B4 | 0.965 enrichment R
5 | B5 | 1.01 enrichment R
6 | B6 | 0.757 enrichment R
7 | B7 | 0.623 enrichment R
8 | B8 | 0.583 enrichment R
9 | B9 | 1.8 enrichment R
10 | B10 | 0.779 enrichment R
11 | B11 | 0.927 enrichment R
12 | B12 | 1.07 enrichment R
13 | B13 | 0.976 enrichment R
14 | B14 | 1.27 enrichment R
15 | B15 | 0.906 enrichment R
16 | B16 | 1.12 enrichment R
17 | B17 | 0.695 enrichment R
18 | B18 | 1.21 enrichment R
19 | B19 | 0.638 enrichment R
20 | B20 | 0.834 enrichment R
21 | B21 | 0.955 enrichment R
22 | B22 | 1.29 enrichment R
